This note sets out measurements from publication PMC7819943, “Rice protein-binding microarrays: a tool to detect cis-acting elements near promoter regions in rice”.

Some of the results follow.

In the assay the target is T1, OsWOX13 (Oryza sativa, UniProt Q5QMM3 1-267).
T1 sequence: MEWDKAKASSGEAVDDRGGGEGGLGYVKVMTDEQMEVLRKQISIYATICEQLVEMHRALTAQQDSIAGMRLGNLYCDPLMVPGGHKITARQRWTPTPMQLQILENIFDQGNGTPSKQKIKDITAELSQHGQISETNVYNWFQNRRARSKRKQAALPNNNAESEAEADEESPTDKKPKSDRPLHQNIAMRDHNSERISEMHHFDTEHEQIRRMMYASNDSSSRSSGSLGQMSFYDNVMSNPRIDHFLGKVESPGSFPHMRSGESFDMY
In words: protein-binding microarray (RPBM); PBS, 2% BSA, 51.3 ng/ul salmon testes DNA, 50 uM zinc acetate, 200 nM TF, 25 C, 1 h; high values mean tight binding. Particulars: protein: recombinant; tags: N-terminal polyhistidine and DsRed monomer fusion (pET32a); label: CyDye5-dUTP incorporated in the synthesized complementary strand; 3' TTTTT single-stranded linker to array surface; dsDNA, one strand shown. The essentials:
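Transcription factors were each fused at the N-terminus to a polyhistidine tag plus DsRed and expressed in E. coli BL21-CodonPlus before Ni–NTA purification. Binding to a double-stranded custom Agilent array was carried out with 200 nM protein at 25 °C for 1 h in PBS, 2% BSA, salmon testes DNA and 50 µM zinc acetate. The binding signal is per-feature fluorescence intensity, in arbitrary units, on an Axon 4000B scanner.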
Consider “CTTCTACGTGTGCTACTGATAATTGGGAAAATTGGAACCGCGGAGTCACCTAGTGCAG”, for which the binding signal was 3840 fluorescence intensity (a.u.).
With “GCCAAATTAACACAAAGGGATTATTTTCCACCTAGAATTTCGGAGTCACCTAGTGCAG” the figure was 10500 fluorescence intensity (a.u.); with “GAGCCCAATCAAGTTGTAACACGAGCCCCGTCAAAGTTGTCGGAGTCACCTAGTGCAG”, 8310 fluorescence intensity (a.u.).
With “GATAATGGATTAAGAATCCGGCCTCTACACCACAAGGAGACGGAGTCACCTAGTGCAG” the figure was 4850 fluorescence intensity (a.u.); with “GTAAATTATTTGCTTCTGAATTTCATATAGTATTTAAATACGGAGTCACCTAGTGCAG”, 3860 fluorescence intensity (a.u.); with “ATCTTAATTGAAACAAACACAGCTTTAGTATATGCATGTCCGGAGTCACCTAGTGCAG”, 58900 fluorescence intensity (a.u.).
With “TGATGACAGAGAGAAGATTTATGCTTACCTCATTGCAGCTCGGAGTCACCTAGTGCAG” the figure was 20000 fluorescence intensity (a.u.); with “GTTGATTTCATTAGCGAGTTTACCCACAGCACAATAAACTCGGAGTCACCTAGTGCAG”, 7020 fluorescence intensity (a.u.); with “TGATGGTATGATTTTAATTTTGTGCGAATTCGAATGACATCGGAGTCACCTAGTGCAG”, 4290 fluorescence intensity (a.u.).
In the case of “TCAAATTAATATTTTACTCCAGACTAGAAATGAGGCAAATCGGAGTCACCTAGTGCAG”, the binding signal was 6740 fluorescence intensity (a.u.).
With “CGGCGGCGGAGGAGGAGGAGGAGGAGGGCGCGGGGCGGCGCGGAGTCACCTAGTGCAG” the figure was 4190 fluorescence intensity (a.u.).
The result for “ATAATTATTTTCTTTCATAACCCTTTTATCCTCAGTGGCTCGGAGTCACCTAGTGCAG” reads 6420 fluorescence intensity (a.u.); that for “TGCCATTGTCAATCTCTCTGCTCTCCTCATGTAACTGATGCGGAGTCACCTAGTGCAG”, 3180 fluorescence intensity (a.u.); that for “TGTTAATTTTCAGGATGTTACAGTACTGGATTGACGTCAACGGAGTCACCTAGTGCAG”, 14200 fluorescence intensity (a.u.).
As to “CTGGCTGTTAATTGTATAGAGACAGTTTTAAAAGCCTAAACGGAGTCACCTAGTGCAG”, the binding signal is 8390 fluorescence intensity (a.u.).
Regarding “CTTACTAAATTTGTACTAACAATCATCTCAACCGTTTGATCGGAGTCACCTAGTGCAG”, the binding signal was 12400 fluorescence intensity (a.u.).
On to “ACAATCAACTGATTTTCTTTCTTTTACAATCAACTGATTTCGGAGTCACCTAGTGCAG”, for which the binding signal was 9230 fluorescence intensity (a.u.).
The result for “AGAGAGGGGATTGATGATTCTTTCCAGATTCAGAGCCTAGCGGAGTCACCTAGTGCAG” reads 10100 fluorescence intensity (a.u.); that for “GACATGACAGAGGATTTTGGAGTCACAACACAACGGCGGTCGGAGTCACCTAGTGCAG”, 4300 fluorescence intensity (a.u.).
The result for “TATATAGATTAATAATATATTAAGGACGTAACTGATGCATCGGAGTCACCTAGTGCAG” reads 7830 fluorescence intensity (a.u.).
With “ATAACAAAATCAACGCCAAAATTGAGTTTTAAACTTTAATCGGAGTCACCTAGTGCAG” the figure was 3310 fluorescence intensity (a.u.); with “CCGAGCAATCAAGCGACAAGATCGAGAAGCCACAAACCCCCGGAGTCACCTAGTGCAG”, 5480 fluorescence intensity (a.u.).
For “GTTAATGGCATATAATAGATTTTCTCTATTACTATTCATCCGGAGTCACCTAGTGCAG”, the binding signal is 27000 fluorescence intensity (a.u.).
Take “GTTAATTTACTATTCTGTTTTATTCTGGTTGTTGATAATACGGAGTCACCTAGTGCAG”: the binding signal was 17200 fluorescence intensity (a.u.).
With “ATCATTAATTCATTTATTTAATATACCCTACATCTAAATCCGGAGTCACCTAGTGCAG” the figure was 3780 fluorescence intensity (a.u.); with “CCAAACTTCTAATTTTAGCGTGAACTACAGAACTAGACACCGGAGTCACCTAGTGCAG”, 3600 fluorescence intensity (a.u.); with “CAAATAATTATTATACTTTGTCATGTCATATAAACTATATCGGAGTCACCTAGTGCAG”, 17900 fluorescence intensity (a.u.).
The result for “AAGTAATTTTAGAGATGCATTTCCTTCGTACCTTTCATCACGGAGTCACCTAGTGCAG” reads 3690 fluorescence intensity (a.u.).
With “ACGTGATGTGATTGTGTTATAGCTTCTTTAATTAAAACAACGGAGTCACCTAGTGCAG” the figure was 15700 fluorescence intensity (a.u.); with “TTTATGATTATTTAATCAATGTCAAACTTGTTCTGTGCATCGGAGTCACCTAGTGCAG”, 49800 fluorescence intensity (a.u.); with “TGAGGAGCAATTAATGAGTTTGATGGACAGAGATAATAGCCGGAGTCACCTAGTGCAG”, 9490 fluorescence intensity (a.u.).
On to “AATAATTTCAAAATTTTATGAATAAGACGAGTGGTCAAACCGGAGTCACCTAGTGCAG”, for which the binding signal was 4550 fluorescence intensity (a.u.).
With “GATAGATAGATAGATAGATGTAGGAGTAAATATCATACAACGGAGTCACCTAGTGCAG” the figure was 17700 fluorescence intensity (a.u.); with “CTCCTTATGTCAACCTAATTTATTGCTAGTACAAATTGCTCGGAGTCACCTAGTGCAG”, 5130 fluorescence intensity (a.u.).
The result for “GCTTACAATTAATGATTACCTTTTCATAAAGATTATTATTCGGAGTCACCTAGTGCAG” reads 12400 fluorescence intensity (a.u.); that for “GTTGGTTCGATTTAATTGCAGTTACCACTTTGAGAACACTCGGAGTCACCTAGTGCAG”, 5570 fluorescence intensity (a.u.); that for “AAGATAGATCAATATGTAATGTATCAATCCACAAACATGCCGGAGTCACCTAGTGCAG”, 6630 fluorescence intensity (a.u.).
As for “GGTTATATTTATCTTCATGATTGTCGCGCTGCAGTAGAAACGGAGTCACCTAGTGCAG”, the binding signal was 10200 fluorescence intensity (a.u.).
With “TGGTGATTTTGTGTCTGTATCATCAAAATTTGGGTATCTTCGGAGTCACCTAGTGCAG” the figure was 10400 fluorescence intensity (a.u.); with “CAAAATCATTGGAGGGAAATGGCCAAGCTGTGCGGTCAGCCGGAGTCACCTAGTGCAG”, 3220 fluorescence intensity (a.u.).
As to “CATTCTAATCATACAAATTTCATCTAGGAAACTATCCCATCGGAGTCACCTAGTGCAG”, the binding signal is 7070 fluorescence intensity (a.u.).
The result for “GCGATGACACAATCAAACAAGTTTGAGAACCTGAACGGTCCGGAGTCACCTAGTGCAG” reads 7080 fluorescence intensity (a.u.).
With “CAAGATTTATGATGATAGCCTTACTGGAGAGGAGCATCATCGGAGTCACCTAGTGCAG” the figure was 14400 fluorescence intensity (a.u.); with “TCTTATAAAACAAATCATTGATCTAATAGTGCTAACAACACGGAGTCACCTAGTGCAG”, 4820 fluorescence intensity (a.u.).
With “TTTTGTGATAAATTGTGTAATATACATGTAGTTTTGTGAACGGAGTCACCTAGTGCAG” the figure was 4530 fluorescence intensity (a.u.); with “GCTGATGGACTGCCGCTACCCTCTCTTTAGTCCCGGATTGCGGAGTCACCTAGTGCAG”, 33300 fluorescence intensity (a.u.).
In the case of “AGTAATTGGAGAGCTCCTCTTACTGTTTCCTACAGTGCGTCGGAGTCACCTAGTGCAG”, the binding signal is 34700 fluorescence intensity (a.u.).
Regarding “TCGTTCTAATTTAACCAAACTTTTAATTTTGGTGTGAACCCGGAGTCACCTAGTGCAG”, the binding signal is 12800 fluorescence intensity (a.u.).
Regarding “TATCTCGGAGTTGATTTGATGATTCTTACAGTTCATTGAACGGAGTCACCTAGTGCAG”, the binding signal was 3550 fluorescence intensity (a.u.).
The result for “TATAATTATTAATAATTAATTAATTATATATTAATTATTTCGGAGTCACCTAGTGCAG” reads 26700 fluorescence intensity (a.u.).
In the case of “TGTATTAGCATAATTAATTGTTCTGGCATTTTGTCGCTGTCGGAGTCACCTAGTGCAG”, the binding signal is 9730 fluorescence intensity (a.u.).
With “AGCTGAATTGACTAGAGGAAGATTCAGCTAATGTATAACACGGAGTCACCTAGTGCAG” the figure was 3240 fluorescence intensity (a.u.); with “ACTGATTCCGTTTTACGTGACTATGGTGTGGACTCGAATACGGAGTCACCTAGTGCAG”, 3300 fluorescence intensity (a.u.); with “ATGCTGCCATGATTGGCTTATCATTTGATGTAATAGTCCCCGGAGTCACCTAGTGCAG”, 25700 fluorescence intensity (a.u.).
